# Experimental data published in the supplement of paper PMC8728848.
# The other results are listed elsewhere or left out.
# B1: XL-35 (Xenopus laevis) (protein)
# chain: MLVHILLLLVTGGLSQSCDPVVIVASKNMVKQLDCDKFRNCKEIKDSNEEAQDGIYTLTSPDGISYQTFCDMTTNGGGWTLVASVHENNMAGKCTIGDRWSSQQGNRADYPEGDGNWANYNTFGSAGGATSDDYKNPGYYDIEAYNLGVWHVPNKTPLSVWRNSSLQRYRTTDGILFKHGGNLFSLYRIYPVKYGIGSCSKDSGPTVPVVYDLGSANLTASFYSPGFRSQFTPGYIQFRPINTEKAALALCPGMKMESCNVEHVCIGGGGYFPEADPRQCGDFAAYDFNGYGTKKFNSAGIEITEAAVLLFYL
# What was measured:
# Test in all cases: glycan array binding signal (z-score within array); higher = stronger binding
# Conditions in all cases: glycan notation: IUPAC condensed, linker removed
# [1] = target: Gal(b1-3)[Neu5Ac(a2-6)]GlcNAc
# Method in brief: (§1)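 Negative Z-scores can be read as non-binding. The Z-score is calculated within each array and then averaged across arrays of one protein sequence at different concentrations or buffers and across linkers. Arrays, 3228 in all, were curated from the Consortium for Functional Glycomics database and kept only where the protein sequence was available.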
# [2] = target: Gal(b1-3)[Neu5Ac(a2-6)]GlcNAc(a1-4)Gal(b1-4)Glc
# Method in brief: as §1
# [3] = target: Gal(b1-3)[Neu5Ac(a2-6)]GlcNAc(b1-4)Gal(b1-4)Glc
# Method in brief: as §1
# [4] = target: Gal(b1-3)[Neu5Ac(b2-6)]GalNAc
# Method in brief: as §1
# [5] = target: Gal(b1-3)[Neu5Ac(b2-6)]GlcNAc
# Method in brief: as §1
# Gal(b1-4)Gal = target: Gal(b1-4)Gal
# Method in brief: as §1
# [6] = target: Gal(b1-4)GalNAc(a1-3)[Fuc(a1-2)]Gal(b1-4)GlcNAc
# Method in brief: as §1
# [7] = target: Gal(b1-4)GalNAc(b1-3)[Fuc(a1-2)]Gal(b1-4)GlcNAc
# Method in brief: as §1
# Gal(b1-4)Glc = target: Gal(b1-4)Glc
# Method in brief: as §1
# Gal(b1-4)Glc6S = target: Gal(b1-4)Glc6S
# Method in brief: as §1
# Gal(b1-4)GlcNAc = target: Gal(b1-4)GlcNAc
# Method in brief: as §1
# [8] = target: Gal(b1-4)GlcNAc(a1-6)Gal(b1-4)GlcNAc
# Method in brief: as §1
# Gal(b1-4)GlcNAc(b1-2)Man = target: Gal(b1-4)GlcNAc(b1-2)Man
# Method in brief: as §1
# [9] = target: Gal(b1-4)GlcNAc(b1-2)Man(a1-3)Man(b1-4)GlcNAc(b1-4)GlcNAc
# Method in brief: as §1
# [10] = target: Gal(b1-4)GlcNAc(b1-2)Man(a1-3)[Gal(b1-4)GlcNAc(b1-2)Man(a1-6)]Man(b1-4)GlcNAc(b1-4)GlcNAc
# Method in brief: as §1
# [11] = target: Gal(b1-4)GlcNAc(b1-2)Man(a1-3)[Gal(b1-4)GlcNAc(b1-2)Man(a1-6)]Man(b1-4)GlcNAc(b1-4)[Fuc(a1-6)]GlcNAc
# Method in brief: as §1
# [12] = target: Gal(b1-4)GlcNAc(b1-2)Man(a1-3)[Gal(b1-4)GlcNAc(b1-2)Man(a1-6)][Gal(b1-4)GlcNAc(b1-4)]Man(b1-4)GlcNAc(b1-4)[Fuc(a1-6)]GlcNAc
# Method in brief: as §1
# [13] = target: Gal(b1-4)GlcNAc(b1-2)Man(a1-3)[Gal(b1-4)GlcNAc(b1-2)Man(a1-6)][GlcNAc(b1-4)]Man(b1-4)GlcNAc(b1-4)[Fuc(a1-6)]GlcNAc
# Method in brief: as §1
# [14] = target: Gal(b1-4)GlcNAc(b1-2)Man(a1-3)[GlcNAc(b1-2)Man(a1-6)]Man(b1-4)GlcNAc(b1-4)GlcNAc
# Method in brief: as §1
# [15] = target: Gal(b1-4)GlcNAc(b1-2)Man(a1-3)[GlcNAc(b1-4)][Gal(b1-4)GlcNAc(b1-2)Man(a1-6)]Man(b1-4)GlcNAc(b1-4)GlcNAc
# Method in brief: as §1
# [16] = target: Gal(b1-4)GlcNAc(b1-2)Man(a1-3)[Man(a1-6)]Man(b1-4)GlcNAc(b1-4)GlcNAc
# Method in brief: as §1
# [17] = target: Gal(b1-4)GlcNAc(b1-2)Man(a1-6)Man(b1-4)GlcNAc(b1-4)GlcNAc
# Method in brief: as §1
# [18] = target: Gal(b1-4)GlcNAc(b1-2)Man(a1-6)[GlcNAc(b1-2)Man(a1-3)]Man(b1-4)GlcNAc(b1-4)GlcNAc
# Method in brief: as §1
# [19] = target: Gal(b1-4)GlcNAc(b1-2)Man(a1-6)[Man(a1-3)]Man(b1-4)GlcNAc(b1-4)GlcNAc
# Method in brief: as §1
# [20] = target: Gal(b1-4)GlcNAc(b1-2)[Gal(b1-4)GlcNAc(b1-4)]Man(a1-3)[Gal(b1-4)GlcNAc(b1-2)Man(a1-6)]Man(b1-4)GlcNAc(b1-4)GlcNAc
# Method in brief: as §1
# [21] = target: Gal(b1-4)GlcNAc(b1-2)[Gal(b1-4)GlcNAc(b1-4)]Man(a1-3)[Gal(b1-4)GlcNAc(b1-2)[Gal(b1-4)GlcNAc(b1-6)]Man(a1-6)]Man(b1-4)GlcNAc(b1-4)GlcNAc
# Method in brief: as §1
# [22] = target: Gal(b1-4)GlcNAc(b1-2)[Gal(b1-4)GlcNAc(b1-4)]Man(a1-3)[GlcNAc(b1-4)][Gal(b1-4)GlcNAc(b1-2)Man(a1-6)]Man(b1-4)GlcNAc(b1-4)GlcNAc
# Method in brief: as §1
# [23] = target: Gal(b1-4)GlcNAc(b1-2)[Gal(b1-4)GlcNAc(b1-4)]Man(a1-3)[GlcNAc(b1-4)][Gal(b1-4)GlcNAc(b1-2)[Gal(b1-4)GlcNAc(b1-6)]Man(a1-6)]Man(b1-4)GlcNAc(b1-4)GlcNAc
# Method in brief: as §1
# [24] = target: Gal(b1-4)GlcNAc(b1-2)[Gal(b1-4)GlcNAc(b1-6)]Man(a1-6)[Gal(b1-4)GlcNAc(b1-2)Man(a1-3)]Man(b1-4)GlcNAc(b1-4)GlcNAc
# Method in brief: as §1
# [25] = target: Gal(b1-4)GlcNAc(b1-2)[Gal(b1-4)GlcNAc(b1-6)]Man(a1-6)[Gal(b1-4)GlcNAc(b1-2)Man(a1-3)]Man(b1-4)GlcNAc(b1-4)[Fuc(a1-6)]GlcNAc
# Method in brief: as §1
# [26] = target: Gal(b1-4)GlcNAc(b1-2)[Gal(b1-4)GlcNAc(b1-6)]Man(a1-6)[GlcNAc(b1-4)][Gal(b1-4)GlcNAc(b1-2)Man(a1-3)]Man(b1-4)GlcNAc(b1-4)GlcNAc
# Method in brief: as §1
# [27] = target: Gal(b1-4)GlcNAc(b1-2)[Gal(b1-4)GlcNAc(b1-6)]Man(a1-6)[GlcNAc(b1-4)][Gal(b1-4)GlcNAc(b1-2)[Gal(b1-4)GlcNAc(b1-4)]Man(a1-3)]Man(b1-4)GlcNAc(b1-4)[Fuc(a1-6)]GlcNAc
# Method in brief: as §1
# [28] = target: Gal(b1-4)GlcNAc(b1-3)Gal(b1-3)GalNAc
# Method in brief: as §1
# [29] = target: Gal(b1-4)GlcNAc(b1-3)Gal(b1-3)GlcNAc
# Method in brief: as §1
# [30] = target: Gal(b1-4)GlcNAc(b1-3)Gal(b1-4)Glc
# Method in brief: as §1
# [31] = target: Gal(b1-4)GlcNAc(b1-3)Gal(b1-4)GlcNAc
# Method in brief: as §1
# [32] = target: Gal(b1-4)GlcNAc(b1-3)Gal(b1-4)GlcNAc(b1-2)Man(a1-3)[Gal(b1-4)GlcNAc(b1-3)Gal(b1-4)GlcNAc(b1-2)Man(a1-6)]Man(b1-4)GlcNAc(b1-4)GlcNAc
# Method in brief: as §1
binder,measurement,setting,value
B1,glycan array binding signal (z-score),[1],-0.064
same,glycan array binding signal (z-score),[2],-0.076
same,glycan array binding signal (z-score),[3],0.794
same,glycan array binding signal (z-score),[4],-0.422
same,glycan array binding signal (z-score),[5],-0.08
same,glycan array binding signal (z-score),Gal(b1-4)Gal,-0.258
same,glycan array binding signal (z-score),[6],-0.133
same,glycan array binding signal (z-score),[7],-0.157
same,glycan array binding signal (z-score),Gal(b1-4)Glc,-0.036
same,glycan array binding signal (z-score),Gal(b1-4)Glc6S,-0.075
same,glycan array binding signal (z-score),Gal(b1-4)GlcNAc,-0.066
same,glycan array binding signal (z-score),[8],-0.375
same,glycan array binding signal (z-score),Gal(b1-4)GlcNAc(b1-2)Man,-0.02
same,glycan array binding signal (z-score),[9],0.168
same,glycan array binding signal (z-score),[10],-0.128
same,glycan array binding signal (z-score),[11],-0.008
same,glycan array binding signal (z-score),[12],-0.344
same,glycan array binding signal (z-score),[13],-0.399
same,glycan array binding signal (z-score),[14],-0.054
same,glycan array binding signal (z-score),[15],-0.127
same,glycan array binding signal (z-score),[16],-0.12
same,glycan array binding signal (z-score),[17],-0.108
same,glycan array binding signal (z-score),[18],-0.06
same,glycan array binding signal (z-score),[19],0.013
same,glycan array binding signal (z-score),[20],-0.488
same,glycan array binding signal (z-score),[21],0.777
same,glycan array binding signal (z-score),[22],-0.284
same,glycan array binding signal (z-score),[23],-0.264
same,glycan array binding signal (z-score),[24],0.116
same,glycan array binding signal (z-score),[25],0.078
same,glycan array binding signal (z-score),[26],-0.452
same,glycan array binding signal (z-score),[27],-0.335
same,glycan array binding signal (z-score),[28],-0.332
same,glycan array binding signal (z-score),[29],-0.158
same,glycan array binding signal (z-score),[30],0.126
same,glycan array binding signal (z-score),[31],0.116
same,glycan array binding signal (z-score),[32],0.242
